Binding data for two molecules are collected here from PMC7511960.

By UniProt entry, the sequences of proteins in these tests, tags left out.
UniProt O95863: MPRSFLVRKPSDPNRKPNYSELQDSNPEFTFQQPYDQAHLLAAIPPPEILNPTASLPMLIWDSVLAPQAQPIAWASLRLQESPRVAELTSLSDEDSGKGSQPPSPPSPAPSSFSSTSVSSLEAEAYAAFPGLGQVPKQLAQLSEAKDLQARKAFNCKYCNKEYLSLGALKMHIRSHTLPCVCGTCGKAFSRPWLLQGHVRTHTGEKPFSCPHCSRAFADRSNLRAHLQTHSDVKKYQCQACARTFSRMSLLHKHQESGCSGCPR

Results are given in words; binding and its absence hold for the method and conditions named. Binding seen in cells or lysates may run through a third protein. Some results given as binding are weak or reduced against the parent protein; the word gives no strength. Sequences can lack the tags named with a protein.

The target of one experiment is Flag-tagged Snail1 (UniProt O95863). Kind of experiment: co-IP; HEK293T co-transfected; Flag-Snail1 immunoprecipitated and protein G-agarose, 4 h at 4 °C, Triton X-100 lysis buffer (50 mM Tris-HCl pH 7.4, 150 mM NaCl, 1 mM EDTA, 1% Triton X-100); blot for the GFP-tagged proteins.
In experiment [1] the target is Flag-tagged Snail1, O95863. The description is as above. The conditions noted are these: remark: other sources report otherwise.

B1: GFP-USP29(USP), catalytic USP domain (amino acids 284-922) (domain or fragment, UniProt Q9HBJ7 284-922)
chain: QQGFPNLGNTCYMNAVLQSLFAIPSFADDLLTQGVPWEYIPFEALIMTLTQLLALKDFCSTKIKRELLGNVKKVISAVAEIFSGNMQNDAHEFLGQCLDQLKEDMEKLNATLNTGKECGDENSSPQMHVGSAATKVFVCPVVANFEFELQLSLICKACGHAVLKVEPNNYLSINLHQETKPLPLSIQNSLDLFFKEEELEYNCQMCKQKSCVARHTFSRLSRVLIIHLKRYSFNNAWLLVKNNEQVYIPKSLSLSSYCNESTKPPLPLSSSAPVGKCEVLEVSQEMISEINSPLTPSMKLTSESSDSLVLPVEPDKNADLQRFQRDCGDASQEQHQRDLENGSALESELVHFRDRAIGEKELPVADSLMDQGDISLPVMYEDGGKLISSPDTRLVEVHLQEVPQHPELQKYEKTNTFVEFNFDSVTESTNGFYDCKENRIPEGSQGMAEQLQQCIEESIIDEFLQQAPPPGVRKLDAQEHTEETLNQSTELRLQKADLNHLGALGSDNPGNKNILDAENTRGEAKELTRNVKMGDPLQAYRLISVVSHIGSSPNSGHYISDVYDFQKQAWFTYNDLCVSEISETKMQEARLHSGYIFFYMHNGIFEELLRKAENSRLPSTQAGVIPQGEYEGDSLYRPA
Consider B1, for which the binding result with Flag-tagged Snail1 was “binds”.

B2: GFP-USP28, Q96RU2 1-1077 (enzyme)
chain: MTAELQQDDAAGAADGHGSSCQMLLNQLREITGIQDPSFLHEALKASNGDITQAVSLLTDERVKEPSQDTVATEPSEVEGSAANKEVLAKVIDLTHDNKDDLQAAIALSLLESPKIQADGRDLNRMHEATSAETKRSKRKRCEVWGENPNPNDWRRVDGWPVGLKNVGNTCWFSAVIQSLFQLPEFRRLVLSYSLPQNVLENCRSHTEKRNIMFMQELQYLFALMMGSNRKFVDPSAALDLLKGAFRSSEEQQQDVSEFTHKLLDWLEDAFQLAVNVNSPRNKSENPMVQLFYGTFLTEGVREGKPFCNNETFGQYPLQVNGYRNLDECLEGAMVEGDVELLPSDHSVKYGQERWFTKLPPVLTFELSRFEFNQSLGQPEKIHNKLEFPQIIYMDRYMYRSKELIRNKRECIRKLKEEIKILQQKLERYVKYGSGPARFPLPDMLKYVIEFASTKPASESCPPESDTHMTLPLSSVHCSVSDQTSKESTSTESSSQDVESTFSSPEDSLPKSKPLTSSRSSMEMPSQPAPRTVTDEEINFVKTCLQRWRSEIEQDIQDLKTCIASTTQTIEQMYCDPLLRQVPYRLHAVLVHEGQANAGHYWAYIYNQPRQSWLKYNDISVTESSWEEVERDSYGGLRNVSAYCLMYINDKLPYFNAEAAPTESDQMSEVEALSVELKHYIQEDNWRFEQEVEEWEEEQSCKIPQMESSTNSSSQDYSTSQEPSVASSHGVRCLSSEHAVIVKEQTAQAIANTARAYEKSGVEAALSEVMLSPAMQGVILAIAKARQTFDRDGSEAGLIKAFHEEYSRLYQLAKETPTSHSDPRLQHVLVYFFQNEAPKRVVERTLLEQFADKNLSYDERSISIMKVAQAKLKEIGPDDMNMEEYKKWHEDYSLFRKVSVYLLTGLELYQKGKYQEALSYLVYAYQSNAALLMKGPRRGVKESVIALYRRKCLLELNAKAASLFETNDDHSVTEGINVMNELIIPCIHLIINNDISKDDLDAIEVMRNHWCSYLGQDIAENLQLCLGEFLPRLLDPSAEIIVLKEPPTIRPNSPYDLCSRFAAVMESIQGVSTVTVK
With B2, in experiment [1], the binding entry is recorded as “no binding”.
